B1: LINE1-full (parent)
chain: UACGUAGGUGGUUUUCCCCUGAUAGUGCUAAGGGGGCCUGGAAGUUUGGACUGGGCAGAGCUCAACACAGCGUGGCAAAGUGGCUGUGGCUAGACUGCCUCUCUGGAUUCCUCGUCACUCAGCAGGGCAUCUCUGAGAGAAAUGCC
B2: LINE1-mini (parent)
chain: GGCAGAGCUCAACACAGCGUGGCAAAGUGGCUGUGGCUAGACUGCC

The source gives no read counts; variants with many changes may rest on few reads.

One data set covers variants of B1. As to the kind of experiment: self-cleavage, relative activity (ratio to wild type); higher = more cleavage; in vitro, sequencing; the parent is a self-cleaving ribozyme.
Take U45C U73A U108C: the self-cleavage was 2.67.

In another data set the parent is B2. Described as above.
With C8G G17C A25U U38C C45A, the self-cleavage worked out at 0.3.

With C10A A12U C23U G27A G30U, the self-cleavage came out at 0.02.

Regarding G19U A41C C45A C46U, the self-cleavage was determined as 0.01.

Take C10A G17A U20C C23G G44U: the self-cleavage was 0.01.

As to A24C G35U U38C, the self-cleavage came out at 0.08.

On to G7U A11G C13U C45G, for which the self-cleavage stood at 0.03.

C3A C8A G22A G27A U32C C37U: the self-cleavage stood at 0.31.

Regarding A6U A14U G35A, the self-cleavage stood at 0.37.

Take A4G G29U G40U: the self-cleavage was 0.07.

On to G29U G30U G35C C37G, for which the self-cleavage was 0.05.

In the case of C15U G17C G19U G40U, the self-cleavage amounted to 0.01.

Regarding A6C A12G A26U G27C U43C, the self-cleavage came out at 0.02.

In the case of G5A A25U U32G, the self-cleavage turned out to be 0.07.

For the variant G21C G22C U32C G35A, the self-cleavage came to 0.06.

A6C A25C C42G: the self-cleavage was 0.05.

Take A12C A16U A26C C31A: the self-cleavage amounted to 0.

For G2A C8A C18A, the self-cleavage is 0.1.

On to G5A U20A G27C U28G, for which the self-cleavage is 0.12.

Take A26U C31A U38C A41C C45G: the self-cleavage stood at 0.05.

A11C C18U C37U: the self-cleavage was 0.02.

As for G2C A12C U34A U38A, the self-cleavage came out at 0.01.

On to G5C G7A A25G C31G, for which the self-cleavage was determined as 0.04.

Take A4U A6C C45U: the self-cleavage came to 0.05.

In the case of C10G C45G C46G, the self-cleavage is 0.04.

Consider G2U A6U U9A C10G G19U A25C G27U G30A U32A, for which the self-cleavage was 0.

Consider G7C A14U U38G, for which the self-cleavage turned out to be 0.01.

With A14U G22C U28G, the self-cleavage is 0.04.

For C15U G30C C37G C46A, the self-cleavage was 0.

On to G2U G17A G19U G35A C46U, for which the self-cleavage was 0.01.

With G2A G17C C18U G35U, the self-cleavage was 0.08.

Take G7C U20A U28C C42A: the self-cleavage came to 0.02.

In the case of G1U C3U A11G A16U A25G, the self-cleavage was 0.01.

As to A11U A26C G27C G44A, the self-cleavage amounted to 0.05.

Regarding G17U G19A A25C, the self-cleavage worked out at 0.48.

For G27A G33U G36U G40A A41U U43G, the self-cleavage came to 0.02.

On to G2U C10U C23G A41U C46A, for which the self-cleavage stood at 0.02.

Take C8G U9A G17C G30C U34C: the self-cleavage was found to be 0.11.

Turning to C8G U20A U34A, the self-cleavage came out at 0.11.

Consider G30U A39G A41U, for which the self-cleavage was found to be 0.07.

As to G1A C10A C23G U38A, the self-cleavage came out at 0.07.

On to G7A A14C G21U G40C, for which the self-cleavage turned out to be 0.04.

As for G7C A11C A12C, the self-cleavage worked out at 0.01.

G30A U38G G40A: the self-cleavage amounted to 0.06.

With C3G C10A G17C C31G, the self-cleavage was determined as 0.01.

Turning to G21A G27U G30U U38C G40A, the self-cleavage stood at 0.16.

Turning to A6C C10A C13G, the self-cleavage was determined as 0.01.

A11C G30A U32A: the self-cleavage is 0.

As to C3A A4C U20C G22A G40C, the self-cleavage was determined as 0.14.

In the case of C10G G36A C42U, the self-cleavage came out at 0.03.

On to G2A G7A C18A, for which the self-cleavage worked out at 0.1.

Take A16C G27A U32C G40C C42G: the self-cleavage worked out at 0.07.

Regarding A14G C15U A41U, the self-cleavage turned out to be 0.35.

For the variant G1U A12G G40A C45G, the self-cleavage worked out at 0.02.

For G22A U28C C37U, the self-cleavage was 0.05.

G17U U34C C37A G40U U43A: the self-cleavage is 0.19.

Regarding G17U C23A A41G, the self-cleavage amounted to 0.09.

Turning to A4C U20C C23U A25U, the self-cleavage was 0.02.

As for C10A A41G C45G, the self-cleavage was 0.02.

As to G2A G7C A12G A14G G19C C42A, the self-cleavage worked out at 0.08.

For the variant A4U G7A U32C C45U, the self-cleavage came out at 0.18.

Consider C13A A14U A16C, for which the self-cleavage worked out at 0.06.

Turning to G1U A12G G22C, the self-cleavage was determined as 0.02.

Regarding U32A G33C C42A, the self-cleavage came to 0.04.

For G5A G17U C23A A25C, the self-cleavage was 0.06.

On to C3U G21U A41U, for which the self-cleavage came out at 0.79.

Regarding G1A G7C G17A G33U, the self-cleavage came to 0.27.

For A11C A26C C46A, the self-cleavage was found to be 0.04.

In the case of A16G U34A C37U G44C C46U, the self-cleavage amounted to 0.

As to C23A U28A U32A C37G G40A G44A, the self-cleavage amounted to 0.06.

A6U U9G U32A: the self-cleavage worked out at 0.02.

Turning to G7A C8G C10A A14C G22U G35U, the self-cleavage was 0.04.

Regarding C10U G27U U28A C45U, the self-cleavage is 0.32.

Take C8G U20G G35C: the self-cleavage turned out to be 0.04.

In the case of G17A G22C G35A, the self-cleavage was found to be 0.02.

Consider G29C A39C C46A, for which the self-cleavage is 0.01.

In the case of C3A G5U U32C, the self-cleavage came to 0.25.

Turning to G7U C8A A14G A16G G27A G40A, the self-cleavage was 0.06.

For the variant C15A A25U G27A G30C A39G, the self-cleavage worked out at 0.1.

Regarding C15U C23U C45G, the self-cleavage is 0.06.

In the case of G1A G17C A39C, the self-cleavage stood at 0.04.

G1U G7C C10G A12C C23U G29C U43G: the self-cleavage was determined as 0.

For C3U C8A A11U G33U G36A C46A, the self-cleavage came out at 0.01.

As to A4C A11U C15G G35U, the self-cleavage was 0.02.

On to G17A A24C G33C C37U, for which the self-cleavage came to 0.02.

Regarding C18U A25C A26U, the self-cleavage was found to be 0.01.

In the case of C10G U28A G44U, the self-cleavage was 0.

As to G2U G40U C46U, the self-cleavage was determined as 0.03.

For the variant C3U G19U C23U, the self-cleavage came to 0.33.

Turning to A11C C13U G30C, the self-cleavage came to 0.02.

As to G1A C10U C18U G36C G40A, the self-cleavage came to 0.09.

A25U G27U G36U C42G: the self-cleavage came to 0.

Take C3G G17U C37A C45A C46G: the self-cleavage is 0.02.

In the case of C3U C10G G21U U32A, the self-cleavage came to 0.01.

Take C8G A11G G36A: the self-cleavage was 0.03.

Take G33U G35U G36C C46A: the self-cleavage is 0.12.

On to G7U C37A C45A, for which the self-cleavage is 0.01.

Consider A6G G21C G36U, for which the self-cleavage is 0.09.

As to G1A C42U U43C C46G, the self-cleavage came out at 0.19.

Turning to C15A G30A U38G, the self-cleavage came out at 0.01.

As to G2U G5C C8G U9C G30C, the self-cleavage stood at 0.02.

Turning to C15G G33C G40C, the self-cleavage stood at 0.

Turning to A6U U9G C10U G21A A24U G29A G30U C31A U34C, the self-cleavage is 0.

As to G2U A4U A6G G7A G19A, the self-cleavage amounted to 0.06.

In the case of G17A G27A G40U, the self-cleavage was 0.05.

Turning to G19C U20A G21A C37A, the self-cleavage was found to be 0.01.

G7U C23A G35U: the self-cleavage came out at 0.04.

As for G17U C31U G44U, the self-cleavage came to 0.

For A6G C8U C15G G19U A24C A25G, the self-cleavage turned out to be 0.04.

As to C13U G27U U34A, the self-cleavage was 0.

As for C18G C31G G33A A41U, the self-cleavage is 0.03.

As to G1U U9C A14U G22A G40C, the self-cleavage turned out to be 0.02.

In the case of A4U C8A G29U, the self-cleavage was 0.08.

Consider C8G U28A G30U, for which the self-cleavage was determined as 0.16.

As to C10A U20C G35A, the self-cleavage worked out at 0.01.

Take C3G A4U G5A A11U: the self-cleavage was 0.03.

On to A26G A39C A41U, for which the self-cleavage amounted to 0.05.

Consider C10U C15A G21C A26C G36A, for which the self-cleavage was 0.01.

Turning to G2A C10A C15A G17C, the self-cleavage worked out at 0.08.

C13A G17U G21U C45A: the self-cleavage stood at 0.03.

For the variant A16G A25C G35A C45U, the self-cleavage stood at 0.06.

Consider A4U G22C G29U, for which the self-cleavage was determined as 0.03.

Regarding U9A G22A C31U, the self-cleavage was found to be 0.02.

As for G1U U9A G27U U38C, the self-cleavage amounted to 0.01.

As to A14G G36A G40A C42G, the self-cleavage is 0.14.

As to C8U U28C G35U, the self-cleavage came out at 0.14.

Take G5U U28G G30A: the self-cleavage was 0.03.

Turning to A4C C23G A41U U43C, the self-cleavage amounted to 0.06.

For C3G G7C U20A G35U, the self-cleavage came to 0.

Regarding G2C C10U G19C U38G, the self-cleavage is 0.02.

Regarding C8U A14C C45G, the self-cleavage stood at 1.1.

G7U A11U U38C: the self-cleavage was 0.11.

For the variant G2U A26G G30A U32G, the self-cleavage was 0.02.

Regarding C13U A26G U34A, the self-cleavage was 0.08.

With U9A A16U G19A G29U G30C G36A, the self-cleavage came to 0.07.

Consider C13U C18U C31G U32C, for which the self-cleavage is 0.2.

As for A14U C15A G33U A39U G40U, the self-cleavage came out at 0.01.

As for C23A U32C A39C, the self-cleavage worked out at 0.19.

For C3A A6G A14G A16G U20C A25C G33U, the self-cleavage stood at 0.01.

As for U20A A26C C42U U43C, the self-cleavage was found to be 0.03.

Consider C10A G21A C42G, for which the self-cleavage came to 0.01.

Take G2C A12G A14C U32C A41C C42A: the self-cleavage is 0.19.

In the case of G5A C8U A39G, the self-cleavage turned out to be 0.03.

For G1C G2A G33A C45G, the self-cleavage stood at 0.05.

As for C18A C37G C46G, the self-cleavage amounted to 0.08.

For A12G G17C A25G, the self-cleavage was determined as 0.08.

For A4U C10A G29C U34A A41U C42U, the self-cleavage came to 0.01.

C18U C31A A39C: the self-cleavage turned out to be 0.05.

In the case of A11G C23A G36U C37A U43A, the self-cleavage was 0.01.

C3A G22A G35U: the self-cleavage is 0.17.

On to C8A A12C A25U, for which the self-cleavage turned out to be 0.01.

As to A14G G27U G44U, the self-cleavage is 0.

G19U A24U G36A: the self-cleavage was 0.27.

In the case of G1U A4G A26C G27U, the self-cleavage is 0.02.

With G5C G33C U38A, the self-cleavage was 0.01.

As for U38C U43C C45A, the self-cleavage turned out to be 0.07.

As for G29C C37A U43A, the self-cleavage was found to be 0.01.

As for G5U C10U A11G C23U A25G, the self-cleavage is 0.01.

With G7A C8A G40A, the self-cleavage came out at 0.41.

C18U G27C G33A: the self-cleavage was found to be 0.08.

On to U9C G22U G33A, for which the self-cleavage amounted to 0.03.

On to C10A C15U G35C, for which the self-cleavage worked out at 0.02.

For G30C G36A C42G, the self-cleavage amounted to 0.1.

For A6U G19U U20A U28G, the self-cleavage amounted to 0.38.

For G2U G7U G19A G27U C45A, the self-cleavage amounted to 0.22.

For the variant G21C C23A A26U U32A U43A, the self-cleavage worked out at 0.18.

As to G21C C31U U32G C45G, the self-cleavage was found to be 0.04.

Values taken from the RNAGym collection of RNA variant scans (doi:10.7554/elife.90254).
